In the supplement of paper PMC4967469:
A lower IC50 marks a more sensitive line; a limit (>, <) means that the fit lies beyond the doses tested. AUC, from the same fit, is the share of area under the viability curve across the 256-fold dose range: 1 means no effect, lower means more sensitive. For part of these data: Where the top dose is marked as inferred, it comes from the curve model; the source does not state it.

How the values were obtained:
Test in all cases: Viability of human cancer cell lines after 72 h of drug (GDSC screen)
Mitomycin C = compound: CO[C@@]12[C@H](COC(N)=O)C3=C(C(=O)C(C)=C(N)C3=O)N1C[C@@H]1N[C@@H]12 [Mitomycin C]; settings: top dose 16 µM
Description: (§1)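 Human cancer cell lines in 384-well plates, medium with 10% serum, drug for 72 h over a 256-fold dose range (nine 2-fold or five 4-fold steps up to the top dose). Adherent lines were fixed and stained with the nucleic acid dye Syto60, suspension lines read with resazurin; signal relative to control wells, capped at 0 and 100%. One two-parameter sigmoid per drug and line, fitted in a mixed model over all curves with the slope shared within a line.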

IOX2 = compound: O=C(O)CNC(=O)c1c(O)c2ccccc2n(Cc2ccccc2)c1=O [IOX2]; settings: top dose 0.1 µM; top dose inferred
Description: as §1

Bosutinib = compound: COc1cc(Nc2c(C#N)cnc3cc(OCCCN4CCN(C)CC4)c(OC)cc23)c(Cl)cc1Cl [Bosutinib]; settings: top dose 2 µM
Description: as §1

Midostaurin = compound: CO[C@@H]1[C@H](N(C)C(=O)c2ccccc2)C[C@H]2O[C@]1(C)n1c3ccccc3c3c4c(c5c6ccccc6n2c5c31)C(=O)NC4 [Midostaurin]; settings: top dose 0.512 µM; top dose inferred
Description: as §1

NVP-BHG712 = compound: Cc1ccc(C(=O)Nc2cccc(C(F)(F)F)c2)cc1Nc1nc(-c2cccnc2)nc2c1cnn2C [NVP-BHG712]; settings: top dose 10.24 µM; top dose inferred
Description: as §1

| Cell Line | AUC (Mitomycin C) | IC50 (Mitomycin C) [nM] | AUC (IOX2) | IC50 (IOX2) [nM] | AUC (Bosutinib) | IC50 (Bosutinib) [nM] | AUC (Midostaurin) | IC50 (Midostaurin) [nM] | AUC (NVP-BHG712) | IC50 (NVP-BHG712) [nM] |
| --- | --- | --- | --- | --- | --- | --- | --- | --- | --- | --- |
| NCI-H1623 (lung adenocarcinoma, adherent) | 0.511 | 1080 | 0.978 | > 100 | 0.978 | > 2000 | 0.979 | > 512 | 0.968 | > 10200 |
| NCI-H1651 (lung adenocarcinoma, adherent) | 0.08 | < 62.5 | 0.985 | > 100 | 0.986 | > 2000 | 0.956 | > 512 | 0.987 | > 10200 |
| NCI-H1688 (small cell lung carcinoma, adherent) | 0.496 | 974 | 0.985 | > 100 | 0.987 | > 2000 | 0.976 | > 512 | 0.873 | > 10200 |
| NCI-H1693 (lung adenocarcinoma, adherent) | 0.489 | 917 | 0.973 | > 100 | 0.758 | 1130 | 0.88 | > 512 | 0.949 | > 10200 |
| NCI-H1703 (lung adenocarcinoma, adherent) | 0.361 | 378 | 0.978 | > 100 | 0.796 | 1170 | 0.877 | > 512 | 0.824 | 7940 |
| NCI-H1755 (lung adenocarcinoma, adherent) | 0.74 | 5510 | 0.96 | > 100 | 0.911 | > 2000 | 0.581 | 55.3 | 0.404 | 334 |
| NCI-H1781 (lung adenocarcinoma, adherent) | 0.072 | < 62.5 | 0.988 | > 100 | 0.987 | > 2000 | 0.922 | > 512 | 0.982 | > 10200 |
| NCI-H1792 (lung adenocarcinoma, adherent) | 0.437 | 686 | 0.977 | > 100 | 0.916 | > 2000 | 0.85 | – | 0.907 | > 10200 |
| NCI-H1944 (lung adenocarcinoma, adherent) | 0.189 | 109 | 0.945 | > 100 | 0.956 | > 2000 | 0.881 | > 512 | 0.905 | > 10200 |
| NCI-H1993 (lung adenocarcinoma, adherent) | 0.813 | 12300 | 0.979 | > 100 | 0.983 | > 2000 | 0.947 | > 512 | 0.884 | > 10200 |
| NCI-H2009 (lung adenocarcinoma, adherent) | 0.342 | 355 | 0.982 | > 100 | 0.891 | > 2000 | 0.806 | 280 | 0.9 | > 10200 |
| NCI-H2023 (lung adenocarcinoma, adherent) | 0.376 | 419 | 0.976 | > 100 | 0.914 | > 2000 | 0.903 | > 512 | 0.963 | > 10200 |
| NCI-H2029 (small cell lung carcinoma, adherent) | 0.81 | 7410 | 0.992 | > 100 | 0.926 | > 2000 | 0.98 | > 512 | 0.978 | > 10200 |
| NCI-H2087 (lung adenocarcinoma, semi-adherent) | 0.172 | 92 | 0.914 | > 100 | 0.986 | > 2000 | 0.892 | > 512 | 0.803 | 5560 |
| NCI-H2110 (non-small cell lung carcinoma, adherent) | 0.103 | < 62.5 | 0.972 | > 100 | 0.896 | > 2000 | 0.943 | > 512 | 0.827 | 6460 |
| NCI-H2122 (lung adenocarcinoma, adherent) | 0.065 | < 62.5 | 0.975 | > 100 | 0.989 | > 2000 | 0.854 | 365 | 0.971 | > 10200 |
| NCI-H2172 (non-small cell lung carcinoma, adherent) | 0.402 | 489 | 0.968 | > 100 | 0.979 | > 2000 | 0.967 | > 512 | 0.901 | > 10200 |
| NCI-H2291 (lung adenocarcinoma, adherent) | 0.915 | > 16000 | 0.978 | > 100 | 0.968 | > 2000 | 0.984 | > 512 | 0.984 | > 10200 |
| NCI-H2342 (lung adenocarcinoma, adherent) | 0.124 | < 62.5 | 0.983 | > 100 | 0.941 | > 2000 | 0.683 | 110 | 0.986 | > 10200 |
| NCI-H2347 (lung adenocarcinoma, adherent) | 0.481 | 875 | 0.971 | > 100 | 0.983 | > 2000 | 0.937 | > 512 | 0.916 | > 10200 |
| NCI-H2405 (lung adenocarcinoma, adherent) | 0.351 | 368 | 0.984 | > 100 | 0.982 | > 2000 | 0.859 | 499 | 0.845 | 8640 |
| NCI-H2444 (non-small cell lung carcinoma, adherent) | 0.81 | 9890 | 0.983 | > 100 | 0.976 | > 2000 | 0.988 | > 512 | 0.913 | > 10200 |
| NCI-H2452 (mesothelioma, adherent) | 0.817 | 11200 | 0.981 | > 100 | 0.967 | > 2000 | 0.929 | > 512 | 0.978 | > 10200 |
| NCI-SNU-16 (stomach, suspension) | 0.812 | 7350 | 0.989 | > 100 | 0.972 | > 2000 | 0.991 | > 512 | 0.987 | > 10200 |
| NUGC-4 (stomach, adherent) | 0.245 | 184 | 0.951 | > 100 | 0.898 | > 2000 | 0.847 | 379 | 0.724 | 2780 |

| Cell Line | AUC (Mitomycin C) | IC50 (Mitomycin C) [nM] | AUC (IOX2) | IC50 (IOX2) [nM] | AUC (Bosutinib) | IC50 (Bosutinib) [nM] | AUC (Midostaurin) | IC50 (Midostaurin) [nM] | AUC (NVP-BHG712) | IC50 (NVP-BHG712) [nM] |
| --- | --- | --- | --- | --- | --- | --- | --- | --- | --- | --- |
| NY (osteosarcoma, adherent) | 0.459 | 774 | 0.978 | > 100 | 0.966 | > 2000 | 0.728 | 141 | 0.989 | > 10200 |
| OAW-42 (ovary, adherent) | 0.182 | 99.5 | 0.984 | > 100 | 0.954 | > 2000 | 0.892 | > 512 | 0.949 | > 10200 |
| OE19 (oesophagus, adherent) | 0.362 | 394 | 0.982 | > 100 | 0.969 | > 2000 | 0.96 | > 512 | 0.986 | > 10200 |
| OE21 (oesophagus, adherent) | 0.366 | 369 | 0.971 | > 100 | 0.687 | 515 | 0.794 | 344 | 0.957 | > 10200 |
| OE33 (oesophagus, adherent) | 0.365 | 393 | 0.982 | > 100 | 0.958 | > 2000 | 0.935 | > 512 | 0.915 | > 10200 |
| OSC-20 (head and neck, adherent) | 0.222 | 129 | 0.977 | > 100 | 0.851 | 1990 | 0.788 | 272 | 0.974 | > 10200 |
| OV-90 (ovary, adherent) | 0.315 | 259 | 0.979 | > 100 | 0.955 | > 2000 | 0.913 | > 512 | 0.783 | 5640 |
| OVISE (ovary, adherent) | 0.695 | 4270 | 0.978 | > 100 | 0.804 | 1410 | 0.968 | > 512 | 0.893 | > 10200 |
| OVKATE (ovary, adherent) | 0.68 | 4480 | 0.801 | 95.9 | 0.945 | > 2000 | 0.972 | > 512 | 0.776 | 7340 |
| OVMIU (ovary, adherent) | 0.453 | 722 | 0.887 | > 100 | 0.818 | 1510 | 0.922 | > 512 | 0.777 | 5200 |
| OVTOKO (ovary, adherent) | 0.245 | 147 | 0.94 | > 100 | 0.696 | 519 | 0.734 | 182 | 0.933 | > 10200 |
| PA-TU-8902 (pancreas, adherent) | 0.632 | 2480 | 0.973 | > 100 | 0.981 | > 2000 | 0.943 | > 512 | 0.842 | 9000 |
| PA-TU-8988T (pancreas, adherent) | 0.241 | 178 | 0.981 | > 100 | 0.982 | > 2000 | 0.935 | > 512 | 0.903 | > 10200 |
| PANC-02-03 (pancreas, adherent) | 0.508 | 1050 | 0.979 | > 100 | 0.918 | > 2000 | 0.964 | > 512 | 0.762 | 4350 |
| PANC-03-27 (pancreas, adherent) | 0.243 | 193 | 0.987 | > 100 | 0.978 | > 2000 | 0.763 | 174 | 0.901 | > 10200 |
| PANC-04-03 (pancreas, adherent) | 0.518 | 1150 | 0.975 | > 100 | 0.971 | > 2000 | 0.958 | > 512 | 0.93 | > 10200 |
| PANC-08-13 (pancreas, adherent) | 0.614 | 2240 | 0.98 | > 100 | 0.981 | > 2000 | 0.945 | > 512 | 0.864 | > 10200 |
| PC-3 [JPC-3] (lung adenocarcinoma, adherent) | 0.575 | 1720 | 0.968 | > 100 | 0.78 | 1110 | 0.924 | > 512 | 0.869 | > 10200 |
| PC-14 (lung adenocarcinoma, adherent) | 0.388 | 511 | 0.989 | > 100 | 0.771 | 685 | 0.864 | 370 | 0.891 | 9700 |
| PCI-4B (head and neck, adherent) | 0.128 | 72 | 0.981 | > 100 | 0.692 | 418 | 0.841 | 330 | 0.953 | > 10200 |
| PCI-15A (head and neck, adherent) | 0.429 | 637 | 0.952 | > 100 | 0.934 | > 2000 | 0.931 | > 512 | 0.984 | > 10200 |
| PCI-30 (head and neck, adherent) | 0.751 | 6340 | 0.963 | > 100 | 0.905 | > 2000 | 0.868 | > 512 | 0.985 | > 10200 |
| PE/CA-PJ15 (head and neck, adherent) | 0.427 | 619 | 0.984 | > 100 | 0.954 | > 2000 | 0.933 | > 512 | 0.962 | > 10200 |
| PFSK-1 (medulloblastoma, adherent) | 0.732 | 4790 | 0.966 | > 100 | 0.959 | > 2000 | 0.975 | > 512 | 0.972 | > 10200 |
